Test results as given in the supplement of paper PMC7826260.
This is one part of the list. One pool of 16,384 single-stranded DNAs met each Rep nickase domain in vitro (1 h at 37 °C, 3 µM enzyme); the outer parts of the 90-letter strands are left off. Numbers give uncut DNA relative to the enzyme-free pool, as log2; more negative means more cut, near 0 not cut, and no call is made. Reads are scaled to the total; uncut strands gain when others are lost, and binding without cutting may add a little.

Legend:
Experiment in all cases: uncleaved DNA left, log2 of reads against the no-enzyme library (log2 ratio); higher = less cleavage (more negative = more Rep cleavage of the k-mer); sequences stand for … in CTCGTCCG…ACCGGAGA
[1] = test system: T1, Rep nickase domain of Muscovy duck circovirus
T1 sequence (protein, residues 1-111, tag omitted): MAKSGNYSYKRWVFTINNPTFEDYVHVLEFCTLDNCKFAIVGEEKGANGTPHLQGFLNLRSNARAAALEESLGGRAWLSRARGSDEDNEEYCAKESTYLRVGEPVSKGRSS
Procedure: (§1)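 A pool of 90-nt single-stranded DNAs with seven random bases just before the constant AC of the nick site (name = the seven bases) was cut by 3 µM recombinant His6-SUMO-tagged Rep nickase domain (300 nM DNA, 50 mM HEPES pH 8.0, 50 mM NaCl, 1 mM MnCl2, 1 h, 37 °C, three replicates). Uncut DNA was amplified and sequenced.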

[2] = test system: T2, Rep nickase domain of banana bunchy top virus
T2 sequence (protein, residues 1-94, tag omitted): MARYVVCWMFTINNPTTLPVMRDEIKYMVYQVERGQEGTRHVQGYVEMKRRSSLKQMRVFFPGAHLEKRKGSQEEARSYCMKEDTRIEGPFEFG
Procedure: as §1

[3] = test system: T3, Rep nickase domain of cabbage leaf curl virus
T3 sequence (protein, residues 1-116, tag omitted): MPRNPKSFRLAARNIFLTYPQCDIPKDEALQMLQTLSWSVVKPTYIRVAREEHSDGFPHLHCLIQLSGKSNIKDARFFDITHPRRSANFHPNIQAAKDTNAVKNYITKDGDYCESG
Procedure: as §1

[4] = test system: T4, Rep nickase domain of chickpea chlorotic dwarf virus
T4 sequence (protein, residues 1-124, tag omitted): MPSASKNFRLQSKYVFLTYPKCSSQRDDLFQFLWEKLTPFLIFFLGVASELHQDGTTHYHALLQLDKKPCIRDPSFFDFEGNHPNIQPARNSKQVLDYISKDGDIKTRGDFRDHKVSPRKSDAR
Procedure: as §1

[5] = test system: T5, Rep nickase domain of faba bean necrotic yellows virus
T5 sequence (protein, residues 1-98, tag omitted): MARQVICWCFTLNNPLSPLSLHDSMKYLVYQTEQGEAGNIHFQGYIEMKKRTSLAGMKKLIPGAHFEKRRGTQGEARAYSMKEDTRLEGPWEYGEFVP
Procedure: as §1

[6] = test system: T6, Rep nickase domain of maize striate mosaic virus
T6 sequence (protein, residues 1-117, tag omitted): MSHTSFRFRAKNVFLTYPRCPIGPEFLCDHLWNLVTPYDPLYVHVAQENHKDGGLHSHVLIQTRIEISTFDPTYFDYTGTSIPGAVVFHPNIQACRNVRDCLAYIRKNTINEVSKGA
Procedure: as §1

[7] = test system: T7, Rep nickase domain of porcine circovirus 2
T7 sequence (protein, residues 2-116, tag omitted): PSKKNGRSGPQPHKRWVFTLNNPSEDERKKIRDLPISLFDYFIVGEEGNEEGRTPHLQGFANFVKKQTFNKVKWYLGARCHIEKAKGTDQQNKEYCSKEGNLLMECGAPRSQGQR
Procedure: as §1

[8] = test system: T8, Rep nickase domain of tomato yellow leaf curl virus
T8 sequence (protein, residues 1-136, tag omitted): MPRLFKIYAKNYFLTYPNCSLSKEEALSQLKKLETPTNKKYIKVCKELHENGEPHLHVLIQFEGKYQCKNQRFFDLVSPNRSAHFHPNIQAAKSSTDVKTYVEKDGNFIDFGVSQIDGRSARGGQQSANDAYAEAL
Procedure: as §1

[9] = test system: T9, Rep nickase domain of wheat dwarf virus
T9 sequence (protein, residues 1-137, tag omitted): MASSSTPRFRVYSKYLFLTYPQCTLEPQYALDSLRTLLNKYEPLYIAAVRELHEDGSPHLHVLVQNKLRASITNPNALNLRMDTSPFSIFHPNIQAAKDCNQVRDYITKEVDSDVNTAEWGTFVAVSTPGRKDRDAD
Procedure: as §1

| Sequence | uncleaved DNA left (log2) [1] | uncleaved DNA left (log2) [2] | uncleaved DNA left (log2) [3] | uncleaved DNA left (log2) [4] | uncleaved DNA left (log2) [5] | uncleaved DNA left (log2) [6] | uncleaved DNA left (log2) [7] | uncleaved DNA left (log2) [8] | uncleaved DNA left (log2) [9] |
| --- | --- | --- | --- | --- | --- | --- | --- | --- | --- |
| GAATCAC | 0.0771 | 0.0339 | -0.306 | -0.151 | 0.0755 | 0.6 | 0.0527 | 0.135 | 0.112 |
| AGATCAA | -0.0255 | 0.0737 | 0.491 | 0.838 | -0.0381 | 0.646 | -0.0289 | -0.0171 | 0.129 |
| GGTTAAG | 0.0958 | -0.0599 | -0.219 | -0.0431 | 0.0357 | -0.516 | 0.0966 | 0.003 | -0.0491 |
| TATCCAA | 0.00858 | 0.0303 | 0.108 | -0.0994 | 0.0198 | -0.264 | -0.067 | 0.093 | 0.0931 |
| TTGCGTT | -0.00898 | -0.088 | -0.803 | 0.0998 | 0.139 | -0.586 | 0.0161 | -0.0219 | -0.22 |
| AACGTAT | 0.0179 | -0.07 | -0.02 | -0.0515 | -0.0269 | 0.759 | -0.135 | -0.168 | -0.153 |
| CGCCGTT | -0.114 | -0.139 | -0.108 | -0.906 | 0.0155 | -0.35 | -0.153 | 0.0299 | -0.0721 |
| CGAAAGC | 0.0416 | 0.153 | 0.133 | 0.403 | 0.0609 | -0.257 | 0.19 | 0.124 | 0.196 |
| GGTTGTT | -2.19 | -0.154 | -0.053 | 0.13 | -0.00931 | 1.33 | -2.38 | 0.052 | -0.208 |
| CCTGAGC | -0.0401 | -0.103 | -0.164 | -0.409 | 0.0537 | -0.807 | 0.102 | 0.0115 | 0.0737 |
| ATTGATC | 0.093 | 0.0522 | 0.0783 | 0.46 | -0.0424 | 0.322 | 0.147 | 0.0478 | 0.109 |
| GATCCGA | 0.0987 | 0.0824 | 0.265 | 0.637 | 0.00517 | 0.438 | 0.156 | 0.0992 | 0.0513 |
| GTGATCA | 0.114 | 0.232 | 0.431 | 1.08 | -0.00192 | 1.94 | 0.142 | 0.192 | 0.21 |
| TTCAGCC | -0.00643 | -0.0933 | -0.0712 | -0.497 | 0.0776 | -1.01 | -0.0123 | 0.0638 | -0.0375 |
| CTGATGC | 0.00233 | -0.0227 | -0.48 | -0.58 | 0.00903 | -0.942 | 0.17 | -0.00445 | -0.136 |
| GTATTGT | -0.00858 | 0.0973 | 0.299 | 0.705 | 0.00134 | 1.07 | 0.0109 | 0.162 | 0.0472 |
| TATCACA | -0.115 | -0.078 | 0.0591 | -2.15 | -0.0639 | -0.136 | -0.14 | -0.0161 | -0.0453 |
| GTTCGCA | -0.021 | 0.0338 | 0.28 | 0.716 | -0.0669 | 1.47 | 0.127 | -0.0377 | 0.107 |
| GTGTAAT | -0.0545 | 0.0959 | 0.397 | 0.913 | -0.0338 | 1.89 | -2.25 | 0.186 | 0.111 |
| CTCTCCT | -0.281 | -0.221 | -0.246 | -1.18 | -0.0965 | 0.232 | -0.701 | -0.198 | -0.123 |
| ACTCATG | -0.0148 | 0.0656 | -0.616 | -0.541 | 0.0162 | -1.26 | 0.191 | 0.0475 | -0.179 |
| CGATAAA | 0.102 | 0.207 | -0.0756 | 0.13 | 0.105 | -0.254 | 0.245 | 0.0992 | 0.113 |
| ACTTGGG | 0.109 | 0.144 | -0.48 | 0.295 | 0.0847 | -0.367 | 0.203 | 0.243 | 0.0195 |
| CGCGCGC | -0.0833 | -0.195 | -0.628 | -0.571 | -0.045 | -0.586 | -0.0276 | -0.152 | -0.155 |
| TTTCGGA | -0.0772 | 0.0614 | 0.14 | 0.338 | -0.0185 | -0.0112 | 0.135 | -0.0963 | -0.0374 |
| CGGACTG | 0.138 | 0.202 | 0.24 | 0.872 | 0.117 | 1.89 | 0.0787 | 0.0941 | 0.258 |
| CACTTAG | 0.0229 | 0.0112 | -0.797 | -0.444 | 0.119 | -1.17 | 0.209 | 0.114 | 0.0306 |
| ACTAACC | 0.0232 | 0.0979 | -0.286 | -0.503 | 0.039 | -0.374 | -0.126 | -0.0188 | 0.0155 |
| GTAAGCC | 0.0486 | 0.0482 | -1.56 | -1.85 | -0.0636 | 0.423 | 0.0736 | 0.00581 | -0.224 |
| GGAACGC | 0.0633 | 0.208 | 0.985 | 1.99 | 0.131 | 2.15 | 0.45 | 0.154 | 0.315 |
